# Source: publication PMC4336329 (PLoS ONE, 2015)
# Screen size: about 310,000 compounds; about 2,200 (0.71%) showed an effect of 50% or more. Effects have a minus sign here. This is one part of the list.
# Target: human ether-à-go-go-related gene (hERG) potassium channel (human, UniProt Q12809)
# Assay: primary screen, population patch clamp on CHO cells stably expressing hERG
# Sequence of human ether-à-go-go-related gene (hERG) potassium channel (Q12809 whole entry, looked up): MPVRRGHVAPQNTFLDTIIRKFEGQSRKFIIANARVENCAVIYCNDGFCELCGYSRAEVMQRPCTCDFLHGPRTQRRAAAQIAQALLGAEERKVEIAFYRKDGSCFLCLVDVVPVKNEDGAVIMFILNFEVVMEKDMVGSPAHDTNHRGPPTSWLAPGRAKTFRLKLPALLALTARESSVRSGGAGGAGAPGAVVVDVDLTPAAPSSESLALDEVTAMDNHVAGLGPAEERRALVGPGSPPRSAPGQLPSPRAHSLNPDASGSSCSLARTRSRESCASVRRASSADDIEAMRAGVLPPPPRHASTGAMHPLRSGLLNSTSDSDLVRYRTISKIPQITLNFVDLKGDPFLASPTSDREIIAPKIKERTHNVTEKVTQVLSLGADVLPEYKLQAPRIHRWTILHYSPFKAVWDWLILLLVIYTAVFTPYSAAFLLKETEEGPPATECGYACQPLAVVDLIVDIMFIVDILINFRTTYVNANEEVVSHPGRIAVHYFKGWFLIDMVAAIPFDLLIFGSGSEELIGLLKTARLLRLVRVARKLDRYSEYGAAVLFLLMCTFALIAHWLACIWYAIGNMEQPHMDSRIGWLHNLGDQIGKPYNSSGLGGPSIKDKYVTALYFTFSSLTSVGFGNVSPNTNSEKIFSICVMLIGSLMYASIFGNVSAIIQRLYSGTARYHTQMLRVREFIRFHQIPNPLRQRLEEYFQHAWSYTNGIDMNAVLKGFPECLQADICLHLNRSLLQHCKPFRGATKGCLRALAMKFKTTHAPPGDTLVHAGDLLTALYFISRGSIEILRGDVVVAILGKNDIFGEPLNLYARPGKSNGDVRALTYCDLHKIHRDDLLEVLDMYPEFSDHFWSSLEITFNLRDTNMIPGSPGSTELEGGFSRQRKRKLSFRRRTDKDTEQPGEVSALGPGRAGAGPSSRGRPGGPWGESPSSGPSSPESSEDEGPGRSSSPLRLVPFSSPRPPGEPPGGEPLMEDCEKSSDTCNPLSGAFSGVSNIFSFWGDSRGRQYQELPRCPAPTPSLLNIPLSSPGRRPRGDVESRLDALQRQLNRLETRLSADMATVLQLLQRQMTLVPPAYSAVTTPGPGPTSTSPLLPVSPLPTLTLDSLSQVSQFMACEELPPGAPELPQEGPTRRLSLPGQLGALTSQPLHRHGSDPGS
row,SMILES,"hERG current change (%, negative = inhibition) at 1uM [%]"
1,CCn1c2ccccc2c2nnc(SCC(N)=O)nc21,6.41
2,CCOc1ccc(N(C)S(=O)(=O)c2ccc(C)c(C(=O)OCC(=O)c3c[nH]c4ccccc34)c2)cc1,10.4
3,Cc1cc(Cl)ccc1OCC(=O)NNC(=O)c1cnccn1,13.3
4,COc1ccc(NC(=O)CCC(=O)N2CCN(S(=O)(=O)c3ccc(C)cc3)CC2)c(OC)c1,-2.37
5,O=c1[nH]c(=O)n(Cc2ccccc2)c2c1C(C(F)(F)F)(C(F)(F)F)N=C(c1ccco1)N2,3.6
6,O=C(Nc1ccc(Br)cc1)c1ccc(Br)c(S(=O)(=O)Nc2cccnc2)c1,0.697
7,C#CCSc1nnc(CNS(=O)(=O)c2ccc(Br)cc2)n1C,-0.803
8,Cc1ccc(N2C(=O)c3ccccc3C2C(=O)c2cc(C)ccc2O)cc1 (stereo not drawn),4.77
9,Cc1noc(C)c1S(=O)(=O)N1CCN(Cc2ccc3c(c2)OCO3)CC1,2.42
10,NC1=NC(=O)C(Cc2cccc(Cl)c2)S1 (stereo not drawn),5.75
11,COc1cccc(-c2nn(-c3ccc(C)cc3)cc2C(=O)N2CCc3cc(OC)c(OC)cc3C2)c1,10.5
12,CC(C)(C)C(=O)NNC(=O)c1ccc(Oc2cc(Cl)cc(Cl)c2)o1,10.7
13,CCOc1ccc(-n2c(=O)c3c4c(sc3n(CC(=O)NCC3CCCO3)c2=O)CCCC4)cc1 (stereo not drawn),0.186
14,COc1ccc(OC)c(C2N(c3ccccn3)C(=O)C3CCCN32)c1 (stereo not drawn),10.6
15,O=C(CCc1nc2ccccc2c(=O)[nH]1)Nc1ccc(Cl)c(Cl)c1,4.57
16,CC1CCN(C(=O)CSc2ccc(-c3ccc(F)cc3)nn2)CC1,-12.5
17,Cc1ccsc1C(=O)NC(C)c1ccc2c(c1)OCO2 (stereo not drawn),0.988
18,Cc1cc(=O)[nH]c(N2CCOCC2)n1,18.3
19,Cc1cc(C(=O)Nc2sc3c(c2C#N)CCC(C)C3)cs1 (stereo not drawn),0.433
20,Cc1cc(OCc2cn3cccnc3n2)ccc1Cl,-0.328
21,CC(C)C(=O)Nc1ccc(C(=O)Nc2ccc(Br)cc2F)cc1,15.1
22,COc1cccc(CN(C(=O)c2cnccn2)C(C(=O)NC2CCCCC2)c2cc(OC)c(OC)c(OC)c2)c1 (stereo not drawn),9.01
23,O=C(NCc1cccnc1)Nc1cccc(Cl)c1,15.8
24,CCc1ccc(N2C(=O)c3cc(N4CCOCC4)c([N+](=O)[O-])cc3C2=O)cc1,10.6
25,CC(C)Nc1ccc(C(CC(N)=O)NC(=O)c2ccccc2)cc1[N+](=O)[O-] (stereo not drawn),10.6
26,Nc1nc(COC(=O)c2ccc3c(c2)OCCO3)nc(Nc2ccccc2)n1,11.2
27,CC(=O)c1ccc(NC(=O)COc2ccc3c(c2)OCO3)cc1,9.98

row,SMILES,"hERG current change (%, negative = inhibition) at 1uM [%]"
1,Cc1cc(C)cc(NC(=O)c2cnn(-c3ccccc3)c2C2CCNCC2)c1.Cl,4.32
2,COC(=O)Nc1ccc(S(=O)(=O)N2CCN(C)CC2)cc1,8.25
3,COc1ccc(-c2nc(NC(=O)Cn3ccc(C(F)(F)F)n3)sc2C)cc1,15.2
4,CC1CN(C)C(C)C/C1=N\Oc1ccc([N+](=O)[O-])cc1.Cl (stereo not drawn),-84.5
5,Cc1ccccc1N1C(=O)NC(=O)/C(=C/c2ccc(N3CCOCC3)o2)C1=O,10.6
6,Cc1onc(-c2ccccc2Cl)c1C(=O)NCc1ccc(N2CCCC2=O)cc1,14.6
7,Cc1ccc(-c2cc(-c3ccccc3)[nH]c(=S)c2C#N)cc1,17.6
8,Cc1ccc(S(=O)(=O)c2c(C)nn(C(C)(C)C)c2OC(=O)c2ccco2)cc1,3.27
9,O=C(C1=C(O)C(=O)N(CCCN2CCOCC2)C1c1ccccn1)c1cc2ccccc2o1 (stereo not drawn),3.18
10,O=C(O)c1cccc(Cn2c(Cl)c(/C=N/NC(=O)c3ccccc3O)sc2=O)c1,5.59
11,Cc1ccc(-c2nn(C)c(=O)c3ccccc23)cc1S(=O)(=O)NCCN1CCOCC1,4.92
12,O=C(NCCc1ccccc1)C1CCN(S(=O)(=O)c2cccc3nonc23)CC1,-3.06
13,COC(=O)c1cccc(NC(=O)CSc2nnc(C3CC3)n2C)c1,15.8
14,CCc1ccccc1NC(=O)CN(C)C(=O)CSc1nnc(Nc2ccc(C)cc2)s1,1.6
15,O=C(COc1coc(CN2CCN(c3ccccc3)CC2)cc1=O)Nc1ccccc1F,13
16,O=C(CSc1ccc([N+](=O)[O-])cn1)Nc1ccc2c(c1)OCO2,14.7
17,Cc1ccc(NC(=O)C(=O)NCC2CCCO2)cc1 (stereo not drawn),6.81
18,CSc1ncccc1C(=O)NCc1ccccc1Cl,0.0203
19,CCOC(=O)c1c(NC(=O)Cn2cnc([N+](=O)[O-])n2)sc2c1CCCC2,1.33
20,COc1ccc(OC)c(S(=O)(=O)N(C)CC(=O)N2CCN(c3ccccc3)CC2)c1,2.6
21,O=C(COC(=O)c1ccc(O)cc1O)NC1CC1,7.81
22,COc1ccc(NC(=O)CSCc2ccc(C)cc2)cc1,-1.82
23,Cc1nc(SCC(=O)c2cc3ccccc3oc2=O)c(C#N)c(-c2cccs2)c1C(=O)Nc1ccccc1,8.51
24,CCCc1nc2sc3c(c2c(=O)n1NC(=O)CCC(=O)OC)CCCC3,11
25,COc1ccc(CN(C)CC(=O)Nc2cccc(S(N)(=O)=O)c2)c(OC)c1OC,14.6
26,COC(=O)c1ccc(C23CC4(C2)[C@H](CN(C)[C@@H]4c2ccccc2)C3c2ccc(Cl)nc2)cc1 (stereo partly drawn),10.1
27,Cc1cccc(OCc2n(CC(=O)OC3CC(C)CCC3C(C)C)c3ccccc3[n+]2C)c1.[Cl-] (stereo not drawn),-12.2
